In the supplement of paper PMC3334620:
The full ranking holds about 33,000 sequences; the median of “E-score (-0.5 to 0.5)” is about -0.036, and the highest 2% start at about 0.37. The list shows a part of the results.

target: T1, Yer064c (UniProt P40041); assay: PBM E-score (8-mer binding enrichment) (E-score (-0.5 to 0.5)); higher = stronger / more preferred TF binding; most listed sequences are background and not binding sites; conditions: protein concentration: 200 nM; construct: GST-full length
T1 sequence: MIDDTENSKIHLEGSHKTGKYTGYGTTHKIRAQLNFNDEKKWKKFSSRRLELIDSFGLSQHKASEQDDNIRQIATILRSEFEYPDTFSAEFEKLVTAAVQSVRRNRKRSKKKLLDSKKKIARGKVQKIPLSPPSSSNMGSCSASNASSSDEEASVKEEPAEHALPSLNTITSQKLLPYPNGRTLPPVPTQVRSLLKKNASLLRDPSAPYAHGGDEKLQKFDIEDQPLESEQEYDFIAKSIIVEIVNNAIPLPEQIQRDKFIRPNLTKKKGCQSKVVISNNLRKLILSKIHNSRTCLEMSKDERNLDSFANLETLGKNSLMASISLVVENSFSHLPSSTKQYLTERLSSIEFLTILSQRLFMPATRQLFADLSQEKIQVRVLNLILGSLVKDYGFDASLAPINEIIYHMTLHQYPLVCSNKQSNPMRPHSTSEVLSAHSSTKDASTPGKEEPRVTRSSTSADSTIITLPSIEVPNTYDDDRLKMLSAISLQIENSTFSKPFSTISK
Outline: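 The E-score, a modified Wilcoxon-Mann-Whitney statistic, was computed by the Universal PBM Analysis Suite for every ungapped eight-base word pooled with its reverse complement. Scans behind it were normalised with masliner after bound GST-tagged yeast transcription factors were detected with fluorescent anti-GST. The proteins, at about 100-200 nM, had been applied to universal all-10-mer Agilent arrays made double-stranded by primer extension.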

Sequence | PBM E-score
GCGCTTCA | -0.248
AAGGGGCG | -0.183
AAGACCAA | 0.0859
GAGACTGC | 0.217
CGAAGCTA | 0.0165
GCAACAAA | -0.0156
CGCCTCTA | -0.162
CCGACAGA | 0.0526
CCCCACAA | -0.0398
ATGCTTGC | -0.259
ACATTACG | -0.0962
CTGTACAG | -0.179
AGGATCCT | -0.0354
CTTTGGGA | -0.039
CGGCGCCC | -0.232
CGGCTCTC | -0.115
ATCGGGGA | 0.0181
AGCGGATA | -0.203
GAGCTCAA | 0.122
ACGTTCCT | -0.057
CTAACAAG | -0.0397
GGAATACA | 0.05

Sequence | PBM E-score
ACCAAGAG | -0.00272
AGAGGCGC | -0.296
ACGACCAC | 0.0554
ACGCCCCT | -0.282
GGCTAGAA | 0.00723
AGAGTGAA | 0.0764
CTCGCTTC | -0.0274
ACGGTAGC | -0.121
ACATATGG | 0.116
CTACAACC | -0.0167
GGCGCAGA | -0.0877
AACGTCGA | 0.146
CAAACGTG | 0.156
TAGCATAA | -0.171
CACAATAG | 0.112
GGCCGGAA | -0.146
AAGACGGG | -0.129
AGACGGAC | 0.0509
GACCGTAA | 0.11
CAGCAGTA | 0.0707
GCATTACC | -0.18
CAGCTCTC | -0.0938

Sequence | PBM E-score
AAATCTTG | 0.0238
TAGGACTA | 0.357
ATCCCCCA | -0.244
GCCTAAGC | -0.115
ACTGGAAG | 0.0296
GAACGCCC | -0.335
ATGTGATA | -0.0851
AATTACGT | 0.0933
AATTTGGC | -0.101
ACGAGCGC | -0.267
ATTCGCCG | 0.0604
CGACACCA | -0.13
CGCGTAAG | 0.0281
CAATTATC | 0.0349
GTAGCGAA | -0.0282
CAGCGCCA | -0.141
TCTTTAAA | 0.171
AGGGTTTA | 0.0489
ATTGAGGG | -0.27
CCGCTCCC | -0.282
AGACTCAC | 0.457
ATAAGTAT | 0.0353

Sequence | PBM E-score
ATATCTAG | 0.117
CAGGTTAG | 0.00036
CTTCGTTA | 0.176
CGGCCGCC | -0.157
AATTGTGC | 0.00102
CCTATCGA | -0.153
CGTCAGGC | -0.19
GAGGCCGA | -0.0783
CTCCCACC | -0.12
CGTGCTCA | 0.0413
CCACGACG | -0.0728
GATGCCAA | -0.13
CGTCTAGA | 0.00747
ACTTTATG | 0.129
GCGTACGA | 0.057
TAATAGGA | 0.0287
TGACCACA | 0.0748
GGCCGGCA | -0.254
ATTCCAAA | 0.0558
CGCACTCA | 0.0489
